Experimental data reported in the supplement of paper PMC9151546.
Single values are uncertain, as repeats are few or missing.

Experiments:
CHO-K1 [1] = test: micronucleus frequency (% of nucleated events); higher = more micronuclei (genotoxic)
CHO-K1 [2] = test: hypodiploid nuclei frequency (% of nucleated events); higher = more hypodiploid events (aneugenic)
CHO-K1 [3] = test: relative survival (nuclei to bead ratio vs DMSO control) (% of vehicle control); higher = more surviving cells
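Throughout, for hypodiploid nuclei frequency (% of nucleated events): hypodiploid nuclei gated on a flow cytometer with 488 nm excitation after SYTOX Green staining, cultures at 37 °C, positive controls vinblastine without S9 and cyclophosphamide with S9.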
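Throughout, for micronucleus frequency (% of nucleated events): cells lysed with nuclei stained by SYTOX Green, then micronucleus-gated events counted against nucleated events by flow cytometry with 488 nm excitation.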
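Throughout, for relative survival (nuclei to bead ratio vs DMSO control): Lysed-cell nuclei stained with SYTOX Green and counted against counting beads by flow cytometry at 488 nm excitation, with vinblastine (no S9) and cyclophosphamide (plus S9) as positive controls.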

N#Cc1c(Cl)c(Cl)c(Cl)c(C#N)c1Cl [Chlorothalonil]
Conditions | hypodiploid nuclei frequency, CHO-K1 [2] [%] | micronucleus frequency, CHO-K1 [1] [%] | relative survival, CHO-K1 [3]
concentration: 0.108 (µM), S9 metabolic activation: with S9, exposure time: 3-4 hours | 0.21 | 1.39 | 90.6
concentration: 0.108 (µM), S9 metabolic activation: without S9, exposure time: 24 hours | 0.72 | 3.14 | 127
concentration: 0.135 (µM), S9 metabolic activation: with S9, exposure time: 3-4 hours | 0.16 | 1.49 | 104
concentration: 0.135 (µM), S9 metabolic activation: without S9, exposure time: 24 hours | 0.64 | 3.5 | 132
concentration: 0.169 (µM), S9 metabolic activation: with S9, exposure time: 3-4 hours | 0.33 | 1.69 | 94.6
concentration: 0.169 (µM), S9 metabolic activation: without S9, exposure time: 24 hours | 1.76 | 11.3 | 85
concentration: 0.211 (µM), S9 metabolic activation: with S9, exposure time: 3-4 hours | 0.26 | 1.37 | 88.5
concentration: 0.211 (µM), S9 metabolic activation: without S9, exposure time: 24 hours | 2 | 15.7 | 90.6
concentration: 0.264 (µM), S9 metabolic activation: with S9, exposure time: 3-4 hours | 0.19 | 1.47 | 97
concentration: 0.264 (µM), S9 metabolic activation: without S9, exposure time: 24 hours | 2.2 | 17.2 | 63.5
concentration: 0.33 (µM), S9 metabolic activation: with S9, exposure time: 3-4 hours | 0.26 | 1.63 | 91.2
concentration: 0.33 (µM), S9 metabolic activation: without S9, exposure time: 24 hours | – | – | 34.3
concentration: 0.412 (µM), S9 metabolic activation: with S9, exposure time: 3-4 hours | 0.26 | 1.38 | 106
concentration: 0.412 (µM), S9 metabolic activation: without S9, exposure time: 24 hours | – | – | 29.9
concentration: 0.515 (µM), S9 metabolic activation: with S9, exposure time: 3-4 hours | 0.26 | 1.16 | 101
concentration: 0.515 (µM), S9 metabolic activation: without S9, exposure time: 24 hours | – | – | 16.2
concentration: 0.644 (µM), S9 metabolic activation: with S9, exposure time: 3-4 hours | 0.33 | 2.75 | 76.3
concentration: 0.644 (µM), S9 metabolic activation: without S9, exposure time: 24 hours | – | – | 8.7
concentration: 0.805 (µM), S9 metabolic activation: with S9, exposure time: 3-4 hours | 0.21 | 2.19 | 99.2
concentration: 0.805 (µM), S9 metabolic activation: without S9, exposure time: 24 hours | – | – | 2.53
concentration: 1.01 (µM), S9 metabolic activation: with S9, exposure time: 3-4 hours | 0.47 | 3.01 | 83.7
concentration: 1.01 (µM), S9 metabolic activation: without S9, exposure time: 24 hours | – | – | 0.7
concentration: 1.08 (µM), S9 metabolic activation: with S9, exposure time: 3-4 hours | 0.22 | 1.24 | 83
concentration: 1.08 (µM), S9 metabolic activation: without S9, exposure time: 24 hours | 1.92 | 4.06 | 67.2
concentration: 1.26 (µM), S9 metabolic activation: with S9, exposure time: 3-4 hours | 0.65 | 3.92 | 62.8
concentration: 1.26 (µM), S9 metabolic activation: without S9, exposure time: 24 hours | – | – | 0.23
concentration: 1.35 (µM), S9 metabolic activation: with S9, exposure time: 3-4 hours | 0.26 | 1.76 | 116
concentration: 1.35 (µM), S9 metabolic activation: without S9, exposure time: 24 hours | – | – | 32.9
concentration: 1.57 (µM), S9 metabolic activation: with S9, exposure time: 3-4 hours | – | – | 57.3
concentration: 1.57 (µM), S9 metabolic activation: without S9, exposure time: 24 hours | – | – | 0.01
concentration: 1.69 (µM), S9 metabolic activation: with S9, exposure time: 3-4 hours | 0.28 | 1.76 | 99.6
concentration: 1.69 (µM), S9 metabolic activation: without S9, exposure time: 24 hours | – | – | 37.1
concentration: 1.97 (µM), S9 metabolic activation: with S9, exposure time: 3-4 hours | – | – | 33.9
concentration: 1.97 (µM), S9 metabolic activation: without S9, exposure time: 24 hours | – | – | 0.05
concentration: 2.11 (µM), S9 metabolic activation: with S9, exposure time: 3-4 hours | 0.16 | 1.64 | 96.7
concentration: 2.11 (µM), S9 metabolic activation: without S9, exposure time: 24 hours | – | – | 26.4
concentration: 2.46 (µM), S9 metabolic activation: with S9, exposure time: 3-4 hours | – | – | 16.7
concentration: 2.46 (µM), S9 metabolic activation: without S9, exposure time: 24 hours | – | – | 0.01
concentration: 2.6 (µM), S9 metabolic activation: with S9, exposure time: 3-4 hours | 0.28 | 2.34 | 112
concentration: 2.6 (µM), S9 metabolic activation: without S9, exposure time: 24 hours | – | – | 22.9
concentration: 3.07 (µM), S9 metabolic activation: with S9, exposure time: 3-4 hours | – | – | 14.1
concentration: 3.07 (µM), S9 metabolic activation: without S9, exposure time: 24 hours | – | – | 0.03
concentration: 3.3 (µM), S9 metabolic activation: with S9, exposure time: 3-4 hours | 0.24 | 1.56 | 101
concentration: 3.3 (µM), S9 metabolic activation: without S9, exposure time: 24 hours | – | – | 12.9
concentration: 3.84 (µM), S9 metabolic activation: with S9, exposure time: 3-4 hours | – | – | 8.73
concentration: 3.84 (µM), S9 metabolic activation: without S9, exposure time: 24 hours | – | – | 0.04
concentration: 4.1 (µM), S9 metabolic activation: with S9, exposure time: 3-4 hours | 0.28 | 1.78 | 145
concentration: 4.1 (µM), S9 metabolic activation: without S9, exposure time: 24 hours | – | – | 8.74
concentration: 4.8 (µM), S9 metabolic activation: with S9, exposure time: 3-4 hours | – | – | 0.11
concentration: 4.8 (µM), S9 metabolic activation: without S9, exposure time: 24 hours | – | – | 0.09
concentration: 5.2 (µM), S9 metabolic activation: with S9, exposure time: 3-4 hours | 0.12 | 0.92 | 113
concentration: 5.2 (µM), S9 metabolic activation: without S9, exposure time: 24 hours | – | – | 0.96
concentration: 6.4 (µM), S9 metabolic activation: with S9, exposure time: 3-4 hours | 0.26 | 1.48 | 141
concentration: 8.1 (µM), S9 metabolic activation: with S9, exposure time: 3-4 hours | 0.4 | 2.22 | 100
concentration: 10.1 (µM), S9 metabolic activation: with S9, exposure time: 3-4 hours | 0.28 | 1.68 | 103
concentration: 12.6 (µM), S9 metabolic activation: with S9, exposure time: 3-4 hours | 0.98 | 6.32 | 74.5
concentration: 15.7 (µM), S9 metabolic activation: with S9, exposure time: 3-4 hours | – | – | 25
concentration: 19.7 (µM), S9 metabolic activation: with S9, exposure time: 3-4 hours | – | – | 8.98
concentration: 25 (µM), S9 metabolic activation: with S9, exposure time: 3-4 hours | – | – | 3.69
concentration: 31 (µM), S9 metabolic activation: with S9, exposure time: 3-4 hours | – | – | 0.03
